Assay results taken from a compilation of properties of binary mixtures (doi:10.1021/je9702955).
Some of these densities may be calculated back from excess volumes.

Assay: xn = mol fraction of the nth substance listed
Settings: 298.15 K, 100 kPa

CCCCOCCOCCOCCCC + CCCO
Settings	mass density [kg/m3]
x1 = 0.0034	800.4
x1 = 0.0097	802.1
x1 = 0.0158	803.8
x1 = 0.0252	806.2
x1 = 0.0426	810.5
x1 = 0.0979	821.9
x1 = 0.1509	830.6
x1 = 0.1955	836.7
x1 = 0.2419	842.1
x1 = 0.2937	847.3
x1 = 0.3481	851.9
x1 = 0.3959	855.4
x1 = 0.4376	858.2
x1 = 0.4827	860.8
x1 = 0.54	863.8
x1 = 0.5983	866.4
x1 = 0.6954	870.1
x1 = 0.7531	872
x1 = 0.8095	873.6
x1 = 0.9083	876.1
x1 = 0.9447	876.9
x1 = 0.9742	877.6

COCCOCCOCCOC + CCCO
Settings	mass density [kg/m3]
x1 = 0.0081	803
x1 = 0.0245	810
x1 = 0.0336	813.8
x1 = 0.048	819.6
x1 = 0.0692	827.7
x1 = 0.0946	836.8
x1 = 0.1327	849.3
x1 = 0.1747	861.9
x1 = 0.2259	875.6
x1 = 0.2757	887.5
x1 = 0.3691	906.8
x1 = 0.4606	922.7
x1 = 0.5714	938.7
x1 = 0.6283	945.9
x1 = 0.7227	956.5
x1 = 0.7726	961.7
x1 = 0.8625	969.9
x1 = 0.9112	974
x1 = 0.9347	975.8
x1 = 0.9568	977.5
x1 = 0.9775	979.1

OCCO + CCCO
Settings	mass density [kg/m3]
x1 = 0.0111	802.1
x1 = 0.0482	811.1
x1 = 0.0722	817.1
x1 = 0.0979	823.5
x1 = 0.1442	835.3
x1 = 0.1912	847.5
x1 = 0.2938	875.3
x1 = 0.345	889.6
x1 = 0.3886	902.2
x1 = 0.4681	925.8
x1 = 0.5096	938.6
x1 = 0.5452	949.7
x1 = 0.5843	962.2
x1 = 0.6533	984.8
x1 = 0.6993	1000.4
x1 = 0.7522	1018.6
x1 = 0.7998	1035.5
x1 = 0.84	1050
x1 = 0.918	1078.7

COCCO + CCCO
Settings	mass density [kg/m3]
x1 = 0.0072	800.6
x1 = 0.0297	804.4
x1 = 0.0471	807.3
x1 = 0.062	809.7
x1 = 0.0767	812.2
x1 = 0.0973	815.6
x1 = 0.2144	834.9
x1 = 0.2667	843.5
x1 = 0.3227	852.6
x1 = 0.3699	860.3
x1 = 0.4118	867.1
x1 = 0.4575	874.5
x1 = 0.4938	880.3
x1 = 0.5359	887.1
x1 = 0.5856	895
x1 = 0.6298	902.1
x1 = 0.6793	909.9
x1 = 0.7347	918.7
x1 = 0.7779	925.5
x1 = 0.8231	932.6
x1 = 0.9597	953.9

COCCOCCOC + CCCO
Settings	mass density [kg/m3]
x1 = 0.0064	801.1
x1 = 0.0122	802.7
x1 = 0.0238	805.7
x1 = 0.0358	808.8
x1 = 0.0803	819.6
x1 = 0.1176	828
x1 = 0.1632	837.7
x1 = 0.2064	846.1
x1 = 0.2619	856.2
x1 = 0.3716	873.9
x1 = 0.4168	880.4
x1 = 0.4652	886.9
x1 = 0.5109	892.7
x1 = 0.5509	897.5
x1 = 0.5982	902.9
x1 = 0.711	914.3
x1 = 0.7757	920.7
x1 = 0.819	925
x1 = 0.9094	932
x1 = 0.9425	934.6
x1 = 0.9722	936.9

CCOCCOCCOCC + CCCO
Settings	mass density [kg/m3]
x1 = 0.0129	802.8
x1 = 0.0249	805.8
x1 = 0.0395	808.5
x1 = 0.0516	812.2
x1 = 0.0695	816.3
x1 = 0.097	822.1
x1 = 0.1283	828.2
x1 = 0.1736	836.2
x1 = 0.2229	843.9
x1 = 0.2672	850.2
x1 = 0.3115	855.8
x1 = 0.4026	865.9
x1 = 0.4592	871.3
x1 = 0.5239	876.8
x1 = 0.5856	881.5
x1 = 0.6363	885
x1 = 0.6742	887.5
x1 = 0.7119	889.8
x1 = 0.7662	892.8
x1 = 0.8311	896.2
x1 = 0.8815	898.6
x1 = 0.9142	900
x1 = 0.9468	901.4
x1 = 0.9756	902.5
